Drawing on PMC6212790, this text covers binding signal for 172 sequences.

Some of the results follow. At the low end of the ranking the order means little.

For this test, the target named is T1, GST-Rok-C97-191 (UniProt O34857).
T1 sequence: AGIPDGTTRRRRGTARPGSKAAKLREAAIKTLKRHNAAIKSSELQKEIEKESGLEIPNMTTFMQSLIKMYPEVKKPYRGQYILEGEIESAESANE
Put plainly: protein binding microarray.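 Note: rank score from −0.5 (least bound) to 0.5 (best bound).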 The note with it: Rok is a gene silencer of Bacillus subtilis; high values mean tight binding; most listed sequences are background and not binding sites; double strand, one strand shown.
As to CGCGATCA, the binding signal is -0.257 E-score.

As for ACCACCGA, the binding signal was found to be 0.118 E-score.

On to ACGGACCG, for which the binding signal was -0.233 E-score.

Consider GTCCTATA, for which the binding signal was found to be 0.0477 E-score.

As for CTTTTGCC, the binding signal is -0.0234 E-score.

Sequence TACGTATA yielded a binding signal of 0.349 E-score.

Consider AGCCTGAC, for which the binding signal is -0.0314 E-score.

As to CCCTTCTC, the binding signal was -0.155 E-score.

With CCGTAGTC, the binding signal was -0.208 E-score.

Turning to CCTATGCC, the binding signal is 0.00707 E-score.

Take AGCACTTG: the binding signal was -0.0182 E-score.

As to ATGACCAC, the binding signal came to 0.0273 E-score.

With ACTAAGTC, the binding signal worked out at 0.0841 E-score.

As to CGGAGCCC, the binding signal was -0.287 E-score.

ATAACAAA: the binding signal came to 0.186 E-score.

Consider CCTGCCTC, for which the binding signal is -0.188 E-score.

For the sequence GCTTTTGA, the binding signal was -0.0321 E-score.

On to AAGTTACG, for which the binding signal was 0.0571 E-score.

As to CCCTCGCG, the binding signal is -0.358 E-score.

For the sequence AACGAGGG, the binding signal was -0.21 E-score.

With CGACGAGA, the binding signal is -0.0061 E-score.

Consider CATTTCTC, for which the binding signal was 0.112 E-score.

With CGTCGCGC, the binding signal was 0.0236 E-score.

As for CGAGAACG, the binding signal was -0.128 E-score.

For the sequence CAACGGAA, the binding signal is 0.051 E-score.

For CCCTTAGG, the binding signal was -0.213 E-score.

For the sequence CGTAGCCA, the binding signal was -0.241 E-score.

AATTAAGA: the binding signal was found to be 0.169 E-score.

Sequence ATGCTGTA had a binding signal of 0.212 E-score.

For ACGAACAG, the binding signal was -0.0336 E-score.

Consider CCCGTGAG, for which the binding signal was -0.187 E-score.

With ATAACGCC, the binding signal is -0.0672 E-score.

For AATGCCTC, the binding signal is -0.242 E-score.

For the sequence GGTAAGAC, the binding signal is -0.0409 E-score.

In turn, GATCCAAA registered a binding signal of 0.0806 E-score.

With GGATACAA, the binding signal was -0.00377 E-score.

Turning to GCTTCACC, the binding signal is -0.104 E-score.

As to GGGCGCAC, the binding signal is -0.239 E-score.

Consider GATACGGA, for which the binding signal was -0.0098 E-score.

TATACCAA returned a binding signal of 0.215 E-score.

As for GTTACGTA, the binding signal was 0.196 E-score.

In the case of ACCAGGTG, the binding signal is -0.113 E-score.

Turning to AGGAATTC, the binding signal is -0.0657 E-score.

In turn, ATCCCAAC yielded a binding signal of 0.0333 E-score.

TTACTAAA returned a binding signal of 0.335 E-score.

As to CCGTAGTA, the binding signal was determined as 0.234 E-score.

As for AGAACTTC, the binding signal is -0.0176 E-score.

Sequence CTATTTGA showed a binding signal of 0.151 E-score.

As to AAGAGCCG, the binding signal was -0.232 E-score.

Regarding CTGACCGC, the binding signal is -0.19 E-score.

For the sequence ACCGCCTG, the binding signal was -0.264 E-score.

For the sequence AAGCGACG, the binding signal is -0.0778 E-score.

Regarding ACACCGCA, the binding signal was -0.176 E-score.

As to CCAGCCTA, the binding signal was -0.167 E-score.

Regarding CCTCCACC, the binding signal was -0.314 E-score.

CTAGCAGC: the binding signal is -0.0431 E-score.

The sequence CTCCGTTA registered a binding signal of 0.0706 E-score.

Regarding GCGCAGGA, the binding signal was -0.0412 E-score.

Turning to ATTCGGTG, the binding signal was -0.0955 E-score.

As for CGTCGAAG, the binding signal amounted to 0.00693 E-score.

As for ATTGAATC, the binding signal turned out to be 0.0979 E-score.

Take GTATTGAA: the binding signal stood at 0.118 E-score.

As to AGTACTTC, the binding signal came to 0.218 E-score.

AACACCTG: the binding signal is -0.0774 E-score.

On to ACCTAAGC, for which the binding signal is -0.0042 E-score.

For AATCTGAA, the binding signal is -0.154 E-score.

The sequence ACTAAATA registered a binding signal of 0.354 E-score.

Take AGGCTCAT: the binding signal is -0.136 E-score.

For the sequence GCCCCCCA, the binding signal was -0.461 E-score.

In the case of AAGCCATC, the binding signal is -0.258 E-score.

Take AGCGTGAA: the binding signal was -0.138 E-score.

With TCTCCACA, the binding signal was -0.132 E-score.

As for CCACGGCA, the binding signal was -0.157 E-score.

Regarding CGGGGAAG, the binding signal was -0.0953 E-score.

Consider TAGTGATA, for which the binding signal is 0.292 E-score.

Turning to AACCGTTG, the binding signal was -0.0513 E-score.

For the sequence CTGCTAAG, the binding signal is -0.108 E-score.

For AGCTCAAC, the binding signal was found to be 0.157 E-score.

With GATTTCCA, the binding signal was -0.0225 E-score.

CGGTTGAG: the binding signal was -0.00416 E-score.

CTTATACA returned a binding signal of 0.263 E-score.

AACATATC returned a binding signal of 0.233 E-score.

With AGGACCCT, the binding signal was -0.23 E-score.

CAACACTG yielded a binding signal of 0.0349 E-score.

For the sequence CCACTAGG, the binding signal turned out to be 0.0281 E-score.

Regarding AGATAACC, the binding signal turned out to be 0.136 E-score.

Regarding ATGATGAA, the binding signal stood at 0.155 E-score.

Take CATGTGAA: the binding signal is -0.104 E-score.

The sequence ATCAATGC came in with a binding signal of 0.0392 E-score.

In the case of AAGAAGGG, the binding signal was -0.273 E-score.

Sequence AAGATTTA displayed a binding signal of 0.192 E-score.

As for ACGCAGTA, the binding signal turned out to be 0.000553 E-score.

With CCCACCGA, the binding signal was -0.138 E-score.

AGATCACA returned a binding signal of 0.226 E-score.

For ATAGGTAG, the binding signal came to 0.358 E-score.

Take AGCGACCA: the binding signal was -0.0379 E-score.

Turning to CCAAATCA, the binding signal is -0.108 E-score.

Regarding CTGTTCGC, the binding signal is -0.0902 E-score.

For the sequence GATCAAAC, the binding signal is -0.074 E-score.

With CCCTGTAC, the binding signal is -0.119 E-score.

Sequence GCACGGTA showed a binding signal of 0.294 E-score.

For the sequence AAACGAGG, the binding signal is -0.106 E-score.

In turn, ATTTGATG yielded a binding signal of 0.139 E-score.

For CTTGGCGA, the binding signal is -0.0992 E-score.

As to CAATCGAA, the binding signal was -0.067 E-score.

Turning to AACGGCTC, the binding signal is -0.146 E-score.

Take ATTGGCCA: the binding signal is -0.185 E-score.

As to ACTGCCCA, the binding signal is -0.0652 E-score.

AAAACACA returned a binding signal of 0.0394 E-score.

GTCAGCGA: the binding signal was -0.0649 E-score.

In the case of ACCGTACC, the binding signal was -0.0769 E-score.

Sequence AACAATCT yielded a binding signal of 0.0215 E-score.

For the sequence CCTACAAA, the binding signal was 0.0991 E-score.

GATCAAGC: the binding signal is -0.207 E-score.

On to AAATATGT, for which the binding signal is 0.287 E-score.

For TATATAAA, the binding signal turned out to be 0.394 E-score.

With CTGCCGCC, the binding signal was -0.353 E-score.

In the case of ACATTGAT, the binding signal amounted to 0.114 E-score.

The sequence ATGTAAAC gave a binding signal of 0.031 E-score.

On to ATTTCTAA, for which the binding signal is 0.357 E-score.

Turning to CTTAGTCC, the binding signal is -0.0813 E-score.

Consider AAGGACCA, for which the binding signal stood at 0.109 E-score.

As for TATTTGCA, the binding signal was found to be 0.199 E-score.

On to ACTGCGGC, for which the binding signal is -0.278 E-score.

The sequence AAGACGGG displayed a binding signal of 0.0275 E-score.

ACAGTCGC: the binding signal was -0.203 E-score.

Take CAATTTTC: the binding signal was 0.155 E-score.

For TGACGCCA, the binding signal was -0.199 E-score.

For the sequence GGACCTCC, the binding signal is -0.11 E-score.

With ACTCCCTG, the binding signal is -0.0834 E-score.

For AAGCCGAT, the binding signal was -0.0234 E-score.

Sequence GATCAATA yielded a binding signal of 0.0798 E-score.

In turn, AACTTTCA returned a binding signal of 0.141 E-score.

Consider TTCTGAAA, for which the binding signal came out at 0.0839 E-score.

In the case of CAATGACA, the binding signal was -0.0738 E-score.

In turn, CAGTTTTC had a binding signal of 0.0426 E-score.

As for AGCGTTAG, the binding signal was -0.144 E-score.

With AAGCTTAA, the binding signal came to 0.0744 E-score.

Turning to AAGGTCCG, the binding signal is -0.202 E-score.

With ACGCCCGC, the binding signal was -0.218 E-score.

On to ATCCAGGC, for which the binding signal is -0.157 E-score.

For ACTTTGGA, the binding signal is -0.0486 E-score.

Turning to AAAGGTAT, the binding signal is 0.211 E-score.

Sequence ACTGGCAT yielded a binding signal of 0.00831 E-score.

AAGATTAG registered a binding signal of 0.219 E-score.

On to CCAATATC, for which the binding signal turned out to be 0.0965 E-score.

As to CCAGGAAC, the binding signal was -0.159 E-score.

For ATTGGGCC, the binding signal was -0.215 E-score.

ACAACGCA: the binding signal was 0.111 E-score.

With AAGCCTCA, the binding signal is -0.158 E-score.

Consider GTTCATAA, for which the binding signal was -0.0201 E-score.

For the sequence GAGACTCC, the binding signal was -0.264 E-score.

In turn, ATCTCGGA showed a binding signal of 0.172 E-score.

ATCACATA registered a binding signal of 0.259 E-score.

With GAATGTCA, the binding signal was -0.127 E-score.

Consider ATTGAGGG, for which the binding signal is -0.0161 E-score.

On to GTGCACAC, for which the binding signal was -0.196 E-score.

As for CAGGGAGA, the binding signal was -0.213 E-score.

For the sequence AACCAGAG, the binding signal was -0.197 E-score.

For CCGGTCTA, the binding signal worked out at 0.0379 E-score.

Consider CCCTGCTC, for which the binding signal is -0.166 E-score.

With CTGAGGGA, the binding signal is -0.199 E-score.

For the sequence GGCGACAA, the binding signal was -0.408 E-score.

With GTATACAC, the binding signal is 0.185 E-score.

In the case of CAGGACCC, the binding signal was -0.103 E-score.

ATGGGCAG: the binding signal was -0.107 E-score.

Regarding ATAATCCG, the binding signal came out at 0.0738 E-score.

Turning to AGGCAAGG, the binding signal was -0.352 E-score.

As for AGCCAGGC, the binding signal was -0.154 E-score.

On to CACTTATA, for which the binding signal is 0.281 E-score.

Sequence CTCCCATA came in with a binding signal of 0.0179 E-score.

AGAAAAAT came in with a binding signal of 0.134 E-score.
